# Laboratory results as given in PubChem BioAssay AID445 (National Center for Advancing Translational Sciences (NCATS), 2006).
# The whole screen tested about 110,000 compounds, of which about 40 (0.04%) were called active. Inconclusive results, whose numbers are uncertain, are shown with a selection of clear calls. Calls follow the shape of the dose curve; as a rule, active = well fitted curve in the direction sought with a large enough effect in the signal ratio (not every such curve was filed as active); inconclusive = small, poorly fitted or top-dose-only effect, or a change in a side signal; inactive = flat fitted curve, though single readings scatter; the % refers to the signal ratio. Potencies of inconclusive entries are doubtful fits and often do not repeat.
# Assay: IkB Signaling;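 as to IkBa stabilization activation: 0% = basal untreated cells and 100% = reference inhibitor full response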
# Conditions: ABC-DLBCL IkBa-CBG/CBR dual luciferase ratio (green luciferase fused to IkBa over red control in OCI-Ly3 lymphoma cells), 4 h; IkBa stabilization activation: at 57.1 µM (top of the series), scaled: untreated 0%, proteasome inhibitor 100% unless noted
# Summary of the method: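 Curves were fitted separately to fusion (green), unfused (red) and ratio luminescence, then classed by r2, magnitude and activity. Cells: OCI-Ly3, 4 h compound plus doxycycline at 37C; 10 uM MG-132 defined full response.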
# Potency is read from the fitted curve at half-maximal effect.
SMILES,IkBa stabilization activation,Potency
Cc1cccc(N2C(=O)CC(N(O)c3ccccc3)C2=O)c1 (configuration not stated),inconclusive: 15.8% [signal inhibitor],
Cc1ccc(-n2c3c(cc(C(=O)Nc4ccccc4C(N)=O)c2=O)C(=O)CC(C)(C)C3)cc1,inconclusive: -1.47% [signal inhibitor],
CCOc1ccccc1NC(=O)c1c(NC(=O)COc2ccccc2)sc2c1CCCC2,,inconclusive: 15.8 µM [signal inhibitor]
COc1ccc(C2=Nc3ccccc3NC(c3cccs3)=N2)cc1,inconclusive: 3.09% [signal inhibitor],
O=C1CC(c2ccccc2)Sc2ccccc2N1Cc1ccc(F)cc1 (configuration not stated),inconclusive: 2.64% [signal inhibitor],
Cc1ccc(OCCn2c(C)c(/C=N/n3cnnc3)c3ccccc32)cc1,inactive: -2.01%,
COc1ccc(OCC(=O)c2c(O)c3ccccc3oc2=O)cc1,inactive: 9.8%,
CCCc1cc(=O)[nH]c(Nc2cc(C)ccc2OC)n1,inconclusive: 0.0369% [signal inhibitor],
COc1cccc(CCNC(=O)c2c(O)nc3c(C)cccn3c2=O)c1,inactive: 0.738%,
CC(Sc1nnc2ccc3ccccc3n12)C(=O)Nc1ccc(Cl)cc1 (configuration not stated),inconclusive: 18.7% [signal inhibitor],
COc1ccccc1NC(=O)Cn1c(SCC(=O)Nc2ccc(F)cc2)nc2ccccc21,inconclusive: 13.2% [signal inhibitor],
Cc1nc2ccn(Cc3ccccc3)c(=O)c2cc1C(=O)N1CCN(c2ccc(F)cc2)CC1,inconclusive: 1.13% [signal inhibitor],
O=S(=O)(c1ccc(N2CC=C(c3ccccc3)CC2)nc1)N1CCCC1,inconclusive: 11.5%,
Cc1ccc2nc(-c3ccc(NC(=O)c4ccc(N)cc4)c(S(=O)(=O)O)c3)sc2c1,"inactive: -1.56% [at 11.4 µM, scaled: untreated 0%, proteasome inhibitor 100%]",
CCc1ccc(NC(=O)CC2C(=O)N(c3cccc(OC)c3)C(=O)N2Cc2ccc(F)cc2)cc1 (configuration not stated),inconclusive: 1.81% [signal inhibitor],
COCCc1nn2c(=O)cc(COC(=O)C(c3ccccc3)c3ccccc3)nc2s1,inconclusive: -1.08% [signal inhibitor],
CCOC(=O)c1cnc2cc(-c3ccc(OCC)cc3)nn2c1-c1ccccc1,inactive: -2.02%,
CC(C)C1=CC2=CC[C@H]3[C@@](C)(CCC[C@]3(C)C(=O)O)[C@@H]2CC1,"inactive: 1.25% [at 11.4 µM, scaled: untreated 0%, proteasome inhibitor 100%]",
CCN(CC)c1ccc(NC(=O)c2cccn2-c2nnc(N3CCCCC3)s2)c(C)c1,inconclusive: 15% [signal inhibitor],
CSc1ccc2c(c1)N(CC[C@H]1CCCCN1C)c1ccccc1S2,inactive,
Cc1c(Cl)cccc1-n1ncc(C(=O)N2CCN(c3ncccn3)CC2)c1C1CCN(C(=O)OC(C)(C)C)CC1,inconclusive: -0.277% [signal inhibitor],
N#CC(C#N)=C(N)/C(C#N)=C/c1ccc(O)cc1,inactive: 0.577%,
Cc1ccc(NC(=O)C(Cc2ccccc2)NS(=O)(=O)c2ccc3c(c2)c(=O)n(C)c(=O)n3C)c(C)c1 (configuration not stated),inconclusive: -0.00199% [signal inhibitor],

SMILES,IkBa stabilization activation,Potency
OC[C@@H]1O[C@@H](n2cnc3c(Nc4ccccc4)ncnc32)[C@@H](O)[C@H]1O,,"inconclusive: 20 µM [rising, partial curve]"
O=C(Nc1cccnc1)Nc1ccc2c(c1)OCO2,inactive: -0.871%,
COc1ccccc1CNC(=O)c1c[nH]c2ccc(S(=O)(=O)Nc3cc(C)cc(C)c3)cc2c1=O,inconclusive: -1.66% [signal inhibitor],
CCCOc1ccc(CNC(=O)CCCn2ncn3c(cc4sc(CC)cc43)c2=O)cc1,inconclusive: 2.19% [signal inhibitor],
COc1ccccc1OCC(=O)Nc1ccc(O)cc1C(=O)O,,"inconclusive: 12.6 µM [signal inhibitor, partial curve]"
CCCOc1ccc(NC(=O)CC2C(=O)N(c3ccccc3)C(=O)N2Cc2ccco2)cc1 (configuration not stated),inconclusive: -1.56% [signal inhibitor],
CCNS(=O)(=O)c1ccc(NC(=O)CSc2nc(-c3ccco3)cc(C(F)(F)F)n2)cc1,inconclusive: 2.05% [signal inhibitor],
COc1cccc(NC(=O)CCC(=O)N2Cc3ccccc3Oc3ncccc32)c1,inconclusive: 1.44% [signal inhibitor],
CC(=O)O[C@H]1CC[C@@]2(C)[C@@H](CC[C@@]3(C)[C@H]2C(=O)C=C2[C@H]4C[C@](C)(C(=O)OCCN5CCCCC5)CC[C@]4(C)CC[C@@]23C)C1(C)C,"inactive: 1.58% [at 11.4 µM, scaled: untreated 0%, proteasome inhibitor 100%]",
CC(C)OC(=O)c1cccc(NC(=O)Cn2nnc3sc4c(c3c2=O)CCCC4)c1,inconclusive: 0.229% [signal inhibitor],
Cc1ccc(-n2cc(-c3ccccc3)c3c(N4CCCCC4)ncnc32)cc1,inconclusive: 1.19% [signal inhibitor],
Cc1cccc(Nc2nnc(-c3ccc(C)c(S(=O)(=O)N4CCCCC4)c3)c3ccccc23)c1,inconclusive: 4.48% [signal inhibitor],
CC(=O)c1cc(C(=O)Nc2ccccc2C(=O)O)oc1C,,"inconclusive: 20 µM [signal inhibitor, partial curve]"
CCOC(=O)CCS(=O)(=O)c1nc(-c2ccccc2)cc(C(F)(F)F)n1,inconclusive: -13.6% [signal inhibitor],
NC([N-]/N=C/c1ccccn1)=[S]=[Fe].O=S(=O)(O)O,"inactive: 0.835% [at 11.4 µM, scaled: untreated 0%, proteasome inhibitor 100%]",
O=C(Nc1cc(Cl)cc(Cl)c1)c1ccc(F)c(S(=O)(=O)NCc2ccccc2Cl)c1,inconclusive: 2.18% [signal inhibitor],
CCOc1ccc(NS(=O)(=O)c2ccc3nc(-c4ccccc4)[nH]c3c2)cc1,,"inconclusive: 39.8 µM [rising, single point]"
CCN(c1ccccc1)S(=O)(=O)c1nnc(NC(=O)c2ccco2)s1,inactive: 7.57%,
Cc1ccc(C)c(N2CCN(C(=O)CN(C)S(=O)(=O)c3ccc4c(c3)CCC(=O)N4)CC2)c1,inconclusive: 5.99% [signal inhibitor],
CN(C)c1ccc(C(c2nnnn2C(C)(C)C)N2CCc3ccccc3C2)cc1 (configuration not stated),inactive: 1.45%,
Cc1nn(-c2ccccc2)c2sc(C(=O)Nc3cccc(O)c3)cc12,inconclusive: -19.4% [signal inhibitor],
O=C(Nc1ccccc1)N1CC[C@@]2(CCCN(C(=O)c3csnn3)C2)C1,"inactive: -0.181% [at 11.4 µM, scaled: untreated 0%, proteasome inhibitor 100%]",
O=C(Nc1ccccc1)Nc1ccccc1,inactive: 3.7%,

SMILES,IkBa stabilization activation,Potency
COc1cc(CN(C(=O)COc2ccc(Cl)c(C)c2)c2ccccn2)cc(OC)c1OC,inconclusive: 1.95% [signal inhibitor],
Cn1c(=O)cc(OCC(=O)NCc2ccc(F)cc2Cl)c2ccccc21,inactive: 2.09%,
COc1ccc(CCNC(=O)CCCn2nc(C)c3sc4ccccc4c3c2=O)cc1OC,inconclusive: 0.397% [signal inhibitor],
CCOc1cccc(-c2nc3cc(C)ccc3o2)c1,inactive: 2.3%,
CCc1ccccc1Nc1nn2c(=O)c3ccc(C(=O)NC4CCCCC4)cc3nc2s1,inconclusive: -1.83% [signal inhibitor],
Cc1ccc(NC(=O)CN(c2cc(C)cc(C)c2)S(=O)(=O)c2c(C)noc2C)nc1,inconclusive: 6.51% [signal inhibitor],
CC(C)C[C@H](NC(=O)[C@@H](O)[C@@H](N)Cc1ccccc1)C(=O)O,inactive,
CCC(O)CNc1nc(SC)nc2sc3c(c12)CCN(C)C3 (configuration not stated),inactive: -2.77%,
Cc1ccn2c(=O)c(C(=O)NCc3ccccc3Cl)c(O)nc2c1,inactive: -0.966%,
CCOC(=O)Cn1nnnc1C(CC)N(Cc1cccs1)Cc1cc2ccc(OC)cc2[nH]c1=O (configuration not stated),inconclusive: 1.09% [signal inhibitor],
COc1cccc2c1Oc1ncccc1N(c1ccc(C(=O)NCc3cccc(C)c3)s1)C2,inconclusive: 1.01% [signal inhibitor],
COc1ncc2nc(-c3ccc(F)cc3)c(=O)n(Cc3cccs3)c2n1,"inactive: 3.9% [at 11.4 µM, scaled: untreated 0%, proteasome inhibitor 100%]",
CCOc1cc(-c2noc(CCC(=O)Nc3cccnc3)n2)ccc1OC,inactive: -0.278%,
CC(C)Oc1ccc(CSc2nnc3n(C)c(=O)c4c5c(sc4n23)CCCC5)cc1,inactive: 0.741%,
CCN(c1ccccc1)c1nnc(NC(=O)Nc2ccc(C)cc2)s1,inactive: 1.53%,
COc1ccc(/C=C/c2nc(C#N)c(N3CCC(C)CC3)o2)cc1OC,inconclusive: 0.0457% [signal inhibitor],
COc1cc(C2=NOC(C(=O)N3CCCc4ccccc43)C2)cc(OC)c1OC (configuration not stated),inconclusive: 1.06% [signal inhibitor],
Cn1c(=O)c2c(nc(N3CCNCC3)n2Cc2cccc3ccccc23)n(C)c1=O,inactive: 1.3%,
CSc1ccc(CCNC(=O)c2ccc(CS(=O)Cc3ccc(Cl)cc3)o2)cc1 (configuration not stated),inconclusive: 3.06% [signal inhibitor],
COc1cccc(-c2nc(=S)c3c(n2Cc2ccco2)CCCC3)c1,inactive: 9.04%,
Cc1cccc(-c2nc(CSCC(=O)N3CCN(c4cccc(C)c4C)CC3)c(C)o2)c1,inconclusive: 1.29% [signal inhibitor],
